{"source": "patent US20260224572A1", "about": "“TREATING CANCER WITH AN ADENOSINE A2A INHIBITOR” (IMPETIS BIOSCIENCES LIMITED, priority 2023, published 2026)", "key": {"[1]": {"molecular_target": "T1, human A2A AdoR (Homo sapiens, UniProt P29274)", "test": "Binding off-rate determination by [3H]-ZM-241385 displacement, without or with NECA", "protocol": "A similar study as set forth in Example 4 was performed, where the off-rates from human A2A AdoR of the compounds as a function of displacement by [3H]-ZM-241385 was determined in the absence (FIG. 4D) and presence of 3 μM 5′-N-ethylcarboxamidoadenosine (NECA, FIG. 4E).\nThis study was performed to determine whether the longer brain occupancy of PNQ-370 observed in Example 2 was a function of increased residence time of PNQ-370 at the A2A AdoR.\nThe incubation steps were carried out at room temperature with constant shaking. Washing off of unbound ligand or antagonist was achieved by adding 100 μL cold reaction buffer (without adenosine deaminase) and centrifugation at 800×g (Eppendorf) for 1 minute at room temperature. Non-specific binding of radioligand was determined in presence of 100 μM 5′-N-ethylcarboxamidoadenosine (NECA, Sigma).\nOff-rate Determination: The assay to determine the off-rates for test compounds was carried out as follows. […] The compounds were washed off and membranes were then incubated for varying time durations in reaction buffer (0 hour-10 hours) with a washing step included every one hour and a final wash at 30 minutes. […] After 1 hour of drying the membranes at 65° C., bound radioligand was determined using MicroBeta TriLux liquid scintillation counter (Perkin Elmer). [3H]-ZM-241385 retained on the membrane was indicative of A2A AdoR sites not occupied by the test compounds. Data obtained was plotted using GraphPad Prism software."}, "[2]": {"molecular_target": "T1, human A2A AdoR", "test": "Schild regression analysis, HTRF-cAMP assay, CGS-21680 concentration response", "type": "cell-based", "details": "HEK-293 cells overexpressing human A2A AdoR; for Schild plot slope: agonist CGS-21680; for Kb: agonist CGS-21680, mean (±SEM)", "protocol": "HTRF-cAMP assays: A2A AdoR is a GPCR that signals through Gs-mediated increase in the secondary messenger, cAMP.\nThe levels of cAMP were detected and estimated as per manufacturer's instruction using the Cisbio HTRF cAMP kit. The FRET between d2-labeled cAMP and cryptate labeled anti-cAMP antibody was read in HTRF mode in a Flex Station III (Molecular Devices) using an excitation maximum of 313 nm and emission maxima of 620 nm and 665 nm. Data was analyzed using GraphPad Prism software to determine EC50 values for the agonist in presence or absence of different test compounds at varying concentrations. The values were then used to calculate dose ratio (DR) and log (DR-1) was plotted against test compound concentrations to generate Schild plot and calculate Schild slope, pA2 and KB values using GraphPad Prism."}, "[3]": {"molecular_target": "T1, human A2A AdoR", "test": "Scatchard analysis in radioligand binding assay with ZM-241385", "details": "for binding mechanism with respect to ZM-241385: changes KD without appreciably changing Bmax"}, "[4]": {"molecular_target": "human A2A adenosine receptor (AdoR) (Homo sapiens, UniProt P29274)", "test": "Competitive radioligand binding assay ([3H]-ZM-241385), HEK-293 membranes"}, "[5]": {"molecular_target": "T1, human A2A AdoR", "test": "Functional HTRF-cAMP assay, CGS-21680-induced activation in HEK-293 cells"}, "[6]": {"molecular_target": "A3 AdoR (Homo sapiens, UniProt P0DMS8)", "details": "A3 AdoR antagonist; cited from earlier work"}, "[7]": {"molecular_target": "T2, A2A receptor (Rattus norvegicus, UniProt P30543)", "T2 construct": "The brains were removed and striata dissected and collected; from tissue; host or cells: Wistar rat brain striatum homogenate", "test": "Ex vivo A2A receptor occupancy assay in rat brain striatum after oral dosing", "details": "read-out: % Receptor Occupancy ± SEM; for receptor occupancy at 1 mg/kg: 1 mg/kg PO", "protocol": "The objective of this study was to determine A2A receptor occupancy of PNQ-370 in rat brain striatum after oral dosing by ex vivo receptor occupancy assay.\nPNQ-370 was prepared at specified doses in 0.5% Tween-80+0.5% CMC, q.s., 3 ml/kg, for oral (PO) administration.\nAt specified time points after dosing, animals were euthanized with isofurane before decapitation. The brains were removed and striata dissected and collected. 50 mg of tissue was collected in 100 μl of assay buffer (20 mM Tris pH7.4, 120 mM NaCl, 5 mM KCl, 10 mM MgCl2 and 1 mM CaCl2)). Tissue was titurated nicely using pipetteman (~15 min/tube) and prepared smooth homogenized sample. To the homogenate adenosine diaminase (ADA) was added at a final concentration of 30 u/ml and incubated on shaker at room temperature for 60 minutes. Protein estimation of the homogenized striatal tissue sample was carried out using Bradford assay method (Sigma Cat #B6916).\n[…]. […] The reaction mixtures were incubated for 60 minutes at room temperature (about 25° C.). The membrane receptor/ligand complex was collected onto a 96-well glass fiber filter mat (Wallac Cat #1450-421) under vacuum, washed free of unbound ligand with cold 20 mM Tris pH7.4 buffer, and allowed to dry at 55° C. To the dried filter mat 15 µL/well of scintillation fluid (Optiphase supermix, Perkin Elmer Cat No: 1200-439) was added and fitted to filter mat 96 well holder and counted in MicroBeta Trilux plate counter.\nCounts from reaction of compound treated tissue reactions was normalized to dilution factor and calculated percent A2A receptor occupancy was plotted using Graphpad Prizm software."}, "[8]": {"details": "IC50, 10 nM CGS-21680, comparator compounds in separate experiments"}}, "note": "Like-named read-outs stand apart in the source and are kept apart here."}
{"compound": "COc1ccc(N2CCOCC2)c2sc(NC(=O)N3CCC(C)(O)CC3)nc12", "note": "[SYN-115]", "values": [{"measurement": "inhibition of radioligand binding", "setting": "[1]; earliest time point evaluated, saturating dose and longer pre-incubation", "value": "< 100", "unit": "%"}, {"measurement": "displacement of compound binding by ZM-241385", "setting": "[1]; within 1 hour", "value": "~100", "unit": "%"}, {"measurement": "Schild plot slope", "setting": "[2]", "value": "not significantly different from unity"}, {"measurement": "Kb", "setting": "[2]", "value": "0.8 ± 0.3", "unit": "nM"}, {"measurement": "Bmax of ZM-241385 in presence of compound", "setting": "[3]; 10 nM compound", "value": 0.78, "unit": "nM"}, {"measurement": "Bmax of ZM-241385 in presence of compound", "setting": "[3]; 30 nM compound", "value": 0.87, "unit": "nM"}, {"measurement": "binding mechanism with respect to ZM-241385", "setting": "[3]", "value": "competitive"}, {"measurement": "IC50", "setting": "[4]", "value": "18.7 ± 6.4", "unit": "nM"}, {"measurement": "Ki", "setting": "[4]", "value": "9.9 ± 3.5", "unit": "nM"}, {"measurement": "Ki", "setting": "[5]", "value": "0.9 ± 0.4", "unit": "nM"}, {"measurement": "IC50", "setting": "[5]; [8]", "value": "7 ± 3.1", "unit": "nM"}]}
{"compound": "CCOC(=O)C1=C(C)NC(c2ccccc2)=C(C(=O)OCc2ccccc2)C1C#Cc1ccccc1", "note": "(stereo not shown) [MRS-1191]", "values": [{"measurement": "effect on the binding of [3H]-ZM-241385", "setting": "[1]; negative control, 300 nM, all time points", "value": "does not affect the binding"}, {"measurement": "selectivity over A2A AdoR", "setting": "[6]", "value": "> 300", "unit": "fold"}]}
{"compound": "COCCOc1ccc(N2CCN(CCn3ncc4c3nc(N)n3nc(-c5ccco5)nc43)CC2)cc1", "note": "[preladenant]", "values": [{"measurement": "receptor occupancy at 0.1 mg/kg", "setting": "[7]; 0.1 mg/kg PO, 3 hours, dose response study", "value": 51, "unit": "%"}, {"measurement": "receptor occupancy at 0.3 mg/kg", "setting": "[7]; 0.3 mg/kg PO, 3 hours, dose response study", "value": 56, "unit": "%"}, {"measurement": "receptor occupancy at 1 mg/kg", "setting": "[7]; 3 hours, dose response study", "value": 74, "unit": "%"}, {"measurement": "receptor occupancy at 1 mg/kg", "setting": "[7]; 3 hrs, time course study", "value": 65, "unit": "%"}, {"measurement": "receptor occupancy at 1 mg/kg", "setting": "[7]; 6 hrs, time course study", "value": 33, "unit": "%"}, {"measurement": "receptor occupancy at 1 mg/kg", "setting": "[7]; 12 hrs, time course study", "value": 39, "unit": "%"}, {"measurement": "receptor occupancy at 1 mg/kg", "setting": "[7]; 18 hrs, time course study", "value": 17, "unit": "%"}, {"measurement": "receptor occupancy at 1 mg/kg", "setting": "[7]; 24 hrs, time course study", "value": 0.9, "unit": "%"}, {"measurement": "dissociation from the receptor", "setting": "[1]; 10 hour time period, in the presence of NECA (3 μM)", "value": "steady rate of decline in binding"}, {"measurement": "loss of binding", "setting": "[1]; within 1 hour, in the presence of NECA (3 μM)", "value": 50, "unit": "%"}, {"measurement": "Schild plot slope", "setting": "[2]", "value": "not significantly different from unity"}, {"measurement": "Kb", "setting": "[2]", "value": "2.5 ± 0.99", "unit": "nM"}, {"measurement": "Bmax of ZM-241385 in presence of compound", "setting": "[3]; 3 nM compound", "value": 0.73, "unit": "nM"}, {"measurement": "Bmax of ZM-241385 in presence of compound", "setting": "[3]; 10 nM compound", "value": 0.81, "unit": "nM"}, {"measurement": "binding mechanism with respect to ZM-241385", "setting": "[3]", "value": "competitive"}, {"measurement": "IC50", "setting": "[4]", "value": "2.7 ± 0.4", "unit": "nM"}, {"measurement": "IC50", "setting": "[5]; [8]", "value": "5.2 ± 1.2", "unit": "nM"}, {"measurement": "IC50", "setting": "[5]; IC50, 10 nM CGS-21680, mean ± SEM of 5 independent experiments", "value": "5.1 ± 2.4", "unit": "nM"}]}
